Results from paper PMC4336329 (PLoS ONE, 2015).
Out of some 310,000 compounds screened, about 14,000 (4.5%) showed an effect of 50% or more. Effects have a minus sign here. The list shows a part of the results.

Each compound was assayed against human ether-à-go-go-related gene (hERG) potassium channel (human, UniProt Q12809) (assay: primary screen, population patch clamp on CHO cells stably expressing hERG).
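Further: peak tail current of the secondary pulse compared with the same well before compound.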

Sequence of human ether-à-go-go-related gene (hERG) potassium channel (Q12809 whole entry, looked up): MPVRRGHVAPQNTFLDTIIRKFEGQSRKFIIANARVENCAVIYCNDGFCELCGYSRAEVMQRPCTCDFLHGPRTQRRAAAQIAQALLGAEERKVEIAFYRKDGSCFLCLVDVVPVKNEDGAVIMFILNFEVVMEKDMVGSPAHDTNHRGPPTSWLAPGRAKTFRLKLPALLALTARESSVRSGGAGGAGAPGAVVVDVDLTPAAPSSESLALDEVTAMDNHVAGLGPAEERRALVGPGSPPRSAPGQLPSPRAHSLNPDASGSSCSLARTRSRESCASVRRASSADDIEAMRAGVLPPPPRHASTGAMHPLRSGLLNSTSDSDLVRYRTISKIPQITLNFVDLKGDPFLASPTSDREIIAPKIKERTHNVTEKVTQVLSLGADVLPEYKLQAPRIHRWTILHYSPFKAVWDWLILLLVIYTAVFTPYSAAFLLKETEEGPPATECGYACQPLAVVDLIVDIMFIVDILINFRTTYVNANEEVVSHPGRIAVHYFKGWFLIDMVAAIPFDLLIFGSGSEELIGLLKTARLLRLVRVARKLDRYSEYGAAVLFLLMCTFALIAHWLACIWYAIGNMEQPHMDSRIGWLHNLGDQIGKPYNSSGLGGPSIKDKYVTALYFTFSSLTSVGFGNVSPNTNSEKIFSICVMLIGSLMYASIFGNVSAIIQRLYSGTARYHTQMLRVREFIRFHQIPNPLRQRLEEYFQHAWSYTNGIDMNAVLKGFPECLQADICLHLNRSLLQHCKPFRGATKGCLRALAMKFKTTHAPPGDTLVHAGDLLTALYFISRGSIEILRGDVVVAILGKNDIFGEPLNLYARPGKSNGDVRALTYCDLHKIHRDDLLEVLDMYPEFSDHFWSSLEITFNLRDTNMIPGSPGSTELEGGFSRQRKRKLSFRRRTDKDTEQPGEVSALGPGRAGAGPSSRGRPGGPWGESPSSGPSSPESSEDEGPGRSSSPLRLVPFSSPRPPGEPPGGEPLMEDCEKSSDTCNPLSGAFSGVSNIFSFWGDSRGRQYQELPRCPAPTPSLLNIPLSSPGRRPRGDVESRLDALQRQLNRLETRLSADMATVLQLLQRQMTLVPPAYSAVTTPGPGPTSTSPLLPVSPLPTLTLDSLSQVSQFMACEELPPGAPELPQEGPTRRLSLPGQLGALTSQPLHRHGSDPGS

Compound | hERG current change (%, negative = inhibition) at 10uM [%]
CCOC(=O)C(Cc1ccccc1)C(=O)Nc1ccc(NC(=O)C(Cc2ccccc2)C(=O)OCC)cc1 (centres unmarked) | -14.5
Cn1c(Cc2nc3ccccc3n2C)nc2ccccc21 | 5.7
COc1ccc(/C=C(/NC(=O)c2ccccc2)C(=O)NCC2CCCO2)cc1 (centres unmarked) | -0.598
Cc1ccc2[nH]c3c(Cl)ncnc3c2c1 | 5.18
CCN(CC)CC(O)COc1ccc2c(c1)OCO2.Cl (centres unmarked) | -25.2
Fc1ccc(NC(=S)N2CCOCC2)c(F)c1 | 14.7
CS(=O)(=O)N(CC(=O)N1CCN(c2ccc(F)cc2)CC1)C1CCCCC1 | -22
CC1CCN(S(=O)(=O)c2cccc(C(=O)N(C)C3(C)CCS(=O)(=O)C3)c2)CC1 (centres unmarked) | -13.9
CS(=O)(=O)N1CCC(C(=O)O)CC1 | 8.55
CN(C)c1ccc(/C=c2/sc3n(c2=O)NC2(c4ccccc4)N(C)C(=O)N(C)C2(c2ccccc2)N=3)cc1 (centres unmarked) | -3.35
COC(=O)c1sccc1S(=O)(=O)Nc1ccc(Cl)cc1 | -0.791
CCCCN=C(C)c1c(O)c2ccccc2oc1=O | -21.1
Cc1ccccc1NS(=O)(=O)c1ccc(C(=O)NCC2CCCO2)cc1 (centres unmarked) | -0.334
C=CCc1c(OC)ccc2ccc(=O)oc12 | 19
COc1cccc(C2C=C(c3cccs3)Nc3ncnn32)c1OC (centres unmarked) | 11.1
COc1ccc(CN2CC(C(=O)NCCCN3CCCCCC3)CC2=O)cc1 (centres unmarked) | -10.4
c1csc(CN2CCOCC2)c1 | 17.1
Cl.O=C(CCN1CCc2ccccc2C(c2ccccc2)C1)c1ccc2c(c1)OCCO2 (centres unmarked) | -0.525
O=C(NCC1CCCO1)c1ccc(CS(=O)(=O)c2ccc(Br)cc2)o1 (centres unmarked) | -15.9

Compound | hERG current change (%, negative = inhibition) at 10uM [%]
O=C(COC(=O)C12CC3CC(CC(O)(C3)C1)C2)Nc1ccccc1OC(F)F | -9.92
CCCCCOC(=O)CC(C(=O)OCCCCC)N1CCCCC1.Cl (centres unmarked) | 1.05
CCN(CC)C(=O)N1CCN(S(=O)(=O)c2ccccc2)CC1 | 19.8
O=C(CCNC(=O)c1ccccc1)Oc1ccc([N+](=O)[O-])cc1 | -44
CCOc1ccc(N(CC(=O)N2CCCC2)S(=O)(=O)c2ccc(Cl)cc2)cc1 | -9.37
FC(F)(F)c1ccc(Cl)c(-n2c(-c3cc(-c4ccco4)[nH]n3)n[nH]c2=S)c1 | 17.8
Cc1ccc2nc(SCC(=O)c3ccc4c(c3)NC(=O)CO4)[nH]c2c1 | 0.357
O=C(NC(Cc1ccccc1)C(=O)Oc1ccc2c(C(F)(F)F)cc(=O)oc2c1)OCc1ccccc1 (centres unmarked) | 9.63
CC(C)c1onc(C(=O)NC2CCCCC2)c1[N+](=O)[O-] | 6.3
Cc1ccccc1OCC(O)CN.Cl.O (centres unmarked) | -1.72
Cc1ccc(NC(=O)CN(C)C(=O)CSc2nnc(C(F)(F)F)n2C)cc1 | 32.8
CC(NCc1cccnc1)c1ccccc1 (centres unmarked) | 18.7
O=C(Nc1ccc2c(c1)OCO2)C(c1ccc(Cl)cc1)N1CCC2(CC1)OCCO2 (centres unmarked) | -42.6
CCn1cc(-c2ccccc2)c(C(=O)O)c1-c1ccc(OC)cc1 | 13.1
O=C(C1=C[C@@H]2[C@H]3C(=O)N(c4ccccc4)C(=O)[C@H]3[C@@H](C(=O)c3ccc(Cl)cc3)N2C=C1)c1ccccc1 | 6.84
Cc1cccc(NC(=S)NC(NC(=O)OCc2ccccc2)C(Cl)(Cl)Cl)c1 (centres unmarked) | 9.47
CC(C)CCOCC(=O)Oc1ccccc1C(=O)O | 9.05
O=C(Oc1ccc2ccccc2c1)C1CCC1 | 17
CCN(C(=O)CN1C(=O)/C(=C/c2ccccc2F)SC1=S)C1CCS(=O)(=O)C1 (centres unmarked) | -1.57

Compound | hERG current change (%, negative = inhibition) at 10uM [%]
Cl.c1ccc(CNC2=NCCCCC2)cc1 | -5.64
CCc1cccc2c(C(=O)C(F)(F)F)cn(CC(=O)N3CCOCC3)c12 | 5.08
Cc1ccc(C2(c3ccccc3)NC(=O)N(CC(=O)N(C)C3CCS(=O)(=O)C3)C2=O)cc1C (centres unmarked) | -22
CCn1c(SCC(=O)NCC2CCCO2)nc2ccccc21 (centres unmarked) | -4.19
CC(NC(=O)/C(=C/c1ccc(OC(F)F)cc1)c1ccccc1)c1ccccc1 (centres unmarked) | -33.1
COc1cccc(-c2c3c([nH]c(=O)c2C#N)CCc2cc(OC)ccc2-3)c1 | 17.9
Cc1ccccc1NC(=O)CSc1nnc(-c2ccccc2)n1-c1ccccc1 | -51.4
Cc1nc2nc(CSc3nc4ccccc4s3)cc(=O)n2[nH]1 | 21.4
O=C(Oc1ccccc1O)c1cccc2ccccc12 | 11.6
COc1ccc(C(=O)NNC(=O)CN2CCC(n3nnc4cc(F)ccc43)CC2)cc1 | -18.4
CCCCOP(=O)(c1ccc(N(C)C)cc1)C(O)c1ccc(N(C)C)cc1 (centres unmarked) | -5.3
Cl.Fc1ccc(Cn2nnnc2CN2CCc3ccccc3C2)cc1 | -10.6
Cc1cc(S(=O)(=O)N(Cc2ccccc2Cl)c2ccc3c(c2)CCC3)ccc1-n1cnnn1 | 8.67
CN(CC(=O)Nc1cccc(F)c1)C(=O)c1cccc(S(=O)(=O)N2CC3(C)CC2CC(C)(C)C3)c1 (centres unmarked) | 21.3
O=C(Nc1sc2c(c1C(=O)NCc1cccnc1)CCCC2)c1ccco1 | -7.77
Cc1ccc(C)c(N2CCN(C(=O)Cn3ncn4cccc4c3=O)CC2)c1 | -4.56
COc1ccc(/C=C2/SC(=S)N(CCC(=O)O)C2=O)cc1 | -6.73
O=C(CSCc1ccccc1)Nc1ccccc1C(=O)Nc1ccc(C(=O)O)cc1 | 9.88
